Uptake ratio data for one molecule are collected here from patent publication US12653899B2, “Multi-targeted, tunable, sustained delivery of payloads to charged avascular tissues” (Massachusetts Institute of Technology, priority 2019, dated 2026).

This series deals with bovine cartilage explants. The series can be described thus: Quantitative uptake of GFPs into bovine cartilage explants (uptake ratio, absorption bath fluorescence). It counts as in vitro ADME. The conditions noted are these: experimental, 24 hr, 1 μM in PBS+1% BSA. An excerpt:
Cartilage tissue was harvested from the femoropatellar grooves of 11 knee joints from 11 different freshly slaughtered 1-2 week old bovine calves (Research 87, Boylston MA) as previously described. Cylindrical cartilage disks (3 mm in diameter) that included the intact superficial zone were cut out and washed with Dulbecco's phosphate buffered saline without calcium and magnesium (PBS). […]
Experiments to quantify the uptake of GFPs into cartilage were started after the explants had been pre-equilibrated in culture medium for 48 h post-harvest. […] (Standard 96-well cell culture plates were not used because S-GFPs could stick to polystyrene even in the presence of BSA, leading to a loss of protein. In contrast, use of polypropylene with 1% BSA enabled complete recovery of fluorescence). […] At the same time, the fluorescence of the absorption bath was measured using a plate reader (Synergy H1, Biotek Instruments Inc.) (excitation: 485 nm, emission: 528 nm). […] At the end of the desorption in 10×PBS+1% BSA, cartilage explants were weighed and the fluorescence of the desorption bath was measured. This fluorescence measurement was used with a standard curve and the explant wet weights to calculate the concentration of GFP inside cartilage explants (mol/mg wet weight). […]

B1: Janus GFP: neutral GFP variant with enhanced uptake; likely the net neutral GFP with more than 40% continuous surface positive charge, SEQ ID NO: 5 (protein)
chain: MGHHHHHHGSACELMVSKGEELFEGDVPILVELDGDVNGHEFSVRGEGEGDATKGELTLKFICTTGELPVPWPTLVTTLTYGVQCFSRYPKHMKQHDFFKSAMPEGYVQERTISFKDDGTYKTRAEVKFEGDTLVNRIELKGKDFKEKGNILGHKLEYNFNSHRVYITADKRKNGIKAEFKIRHNVKDGSVQLADHYQQNTPIGRGPVLLPRRHYLSTRSALSKDPKEERDHMVLLEFVTAAGIDHGMDELYK
In the case of B1, the Uptake ratio is given as 10.1±1.3.
